In all, about 150,000 compounds went through this assay and about 540 (0.36%) showed an effect of 50% or more. This is one part of the list.
Each compound was assayed on Plasmodium falciparum (assay: Primary screen in NF54 nanoGlo assay, in single point, at 2uM, 72h; a lower Z score goes with more inhibition). Conditions: timepoint 72 hour.
Format: functional, Erythrocyte

First: O=C(N[C@H]1CCCCNC1=O)c1coc(COc2ccccc2)n1
Second: c1ccc2[nH]c(C3CCN(c4ncnc5nc[nH]c45)CC3)nc2c1
The “% Inhibition” value of the first is lower: 1% for the first, 3% for the second.

First: Cc1cc(C)n(Cc2c(C(=O)NCc3ccc(C)o3)noc2C)n1
Second: CCn1c(-c2ccccc2F)nc2cc(C(=O)NCc3cn4cc(C)sc4n3)cc(NC(C)=O)c21
The “% Inhibition” value of the first is lower: -16% for the first, -11% for the second.

Going from `COc1cc(C(=O)Nc2cc(C)cc(-n3nc4ccccc4n3)c2OC)cc(OC)c1OC` to `CC(=O)Nc1ccc2[nH]c(C)c([C@H](Nc3ccccn3)c3ccccn3)c2c1`, the “% Inhibition” value falls from 32% to -3%.

First: O=C(CN1CCCCC1=O)NCCCOC1CCCC1
Second: CCC[C@H]1CC[C@H](C(=O)NCc2cc3n(n2)CCN(S(C)(=O)=O)C3)CC1
The “% Inhibition” value of the first is higher: 5% for the first, -11% for the second.

Compared with `Cc1cccc(C(NC(=O)[C@H](C)c2ccccc2)C(=O)O)c1C` (stereo partly specified), `O=C(NCC[C@H](O)c1ccccc1)C(=O)Nc1ccon1` is higher in “% Inhibition” value: -10% for the first, -3% for the second.

Going from `O=C(O)C1(n2cccn2)CCN(Cc2ccc3occc3c2)CC1` to `Clc1ccc(CN2CCC[C@H](C3OCCO3)C2)cc1`, the “% Inhibition” value rises from -7% to 6%.

First: N#Cc1c(C(F)(F)F)cc(O)n2c1nc1ccccc12
Second: COc1ccccc1Cn1ncc2[nH]c(-c3ccccc3OC(F)F)nc21
The “% Inhibition” value of the first is higher: 10% for the first, -2% for the second.

Compared with `c1cnc(NCc2cn3c(n2)CCCC3)cn1`, `COc1ccc(CNc2nc3c(c(C(F)(F)F)n2)CCCCC3)cc1` is lower in “% Inhibition” value: -1% for the first, -11% for the second.

Compared with `CCc1oc(C(=O)O)cc1CN1C[C@@H]2[C@@H]3CC[C@@H](C3)[C@]2(C)C1`, `CNC(=O)[C@@]1(C(F)(F)F)CCN(C(=O)c2cc(OC)no2)C1` is lower in “% Inhibition” value: 2% for the first, -2% for the second.

Going from `CC[C@H](NS(=O)(=O)CC(C)C)c1cc(C)ccn1` to `Cc1cc(N(Cc2cccnc2)Cc2ccco2)ncn1`, the “% Inhibition” value falls from 7% to 1%.

First: COC(=O)CCN1C[C@H](OCc2cccc(OC)c2)CN(C(=O)c2ccc(F)cc2Cl)CC1=O
Second: O=S(=O)(c1cccnc1)N(Cc1ccc(Br)cc1)C1CC1
The “% Inhibition” value of the first is higher: -2% for the first, -8% for the second.

`CC(C)N(CCOCCO)C(=O)Nc1cc(F)c(F)c(F)c1` was tested, and the “% Inhibition” value was -12%.

Going from `O=C(N[C@H]1CCCCNC1=O)c1coc(COc2ccccc2)n1` to `c1ccc2[nH]c(C3CCN(c4ncnc5nc[nH]c45)CC3)nc2c1`, the Z score falls from -0.12 to -0.48.

Compared with `Cc1cc(C)n(Cc2c(C(=O)NCc3ccc(C)o3)noc2C)n1`, `CCn1c(-c2ccccc2F)nc2cc(C(=O)NCc3cn4cc(C)sc4n3)cc(NC(C)=O)c21` is lower in Z score: 1.6 for the first, 1.5 for the second.

Compared with `COc1cc(C(=O)Nc2cc(C)cc(-n3nc4ccccc4n3)c2OC)cc(OC)c1OC`, `CC(=O)Nc1ccc2[nH]c(C)c([C@H](Nc3ccccn3)c3ccccn3)c2c1` is higher in Z score: -3.57 for the first, 0.52 for the second.

Going from `O=C(CN1CCCCC1=O)NCCCOC1CCCC1` to `CCC[C@H]1CC[C@H](C(=O)NCc2cc3n(n2)CCN(S(C)(=O)=O)C3)CC1`, the Z score rises from -1.03 to 1.09.

First: Cc1cccc(C(NC(=O)[C@H](C)c2ccccc2)C(=O)O)c1C (stereo partly specified)
Second: O=C(NCC[C@H](O)c1ccccc1)C(=O)Nc1ccon1
The Z score of the first is higher: 1.25 for the first, 0.45 for the second.

First: O=C(O)C1(n2cccn2)CCN(Cc2ccc3occc3c2)CC1
Second: Clc1ccc(CN2CCC[C@H](C3OCCO3)C2)cc1
The Z score of the first is higher: 1.09 for the first, -0.85 for the second.

Going from `N#Cc1c(C(F)(F)F)cc(O)n2c1nc1ccccc12` to `COc1ccccc1Cn1ncc2[nH]c(-c3ccccc3OC(F)F)nc21`, the Z score rises from -1.32 to 0.33.

Going from `c1cnc(NCc2cn3c(n2)CCCC3)cn1` to `COc1ccc(CNc2nc3c(c(C(F)(F)F)n2)CCCCC3)cc1`, the Z score rises from 0.17 to 1.07.

Compared with `CCc1oc(C(=O)O)cc1CN1C[C@@H]2[C@@H]3CC[C@@H](C3)[C@]2(C)C1`, `CNC(=O)[C@@]1(C(F)(F)F)CCN(C(=O)c2cc(OC)no2)C1` is higher in Z score: -0.33 for the first, 0.23 for the second.

First: CC[C@H](NS(=O)(=O)CC(C)C)c1cc(C)ccn1
Second: Cc1cc(N(Cc2cccnc2)Cc2ccco2)ncn1
The Z score of the first is lower: -0.96 for the first, -0.15 for the second.

First: COC(=O)CCN1C[C@H](OCc2cccc(OC)c2)CN(C(=O)c2ccc(F)cc2Cl)CC1=O
Second: O=S(=O)(c1cccnc1)N(Cc1ccc(Br)cc1)C1CC1
The Z score of the first is lower: 0.31 for the first, 1.46 for the second.

With `CC(C)N(CCOCCO)C(=O)Nc1cc(F)c(F)c(F)c1` the Z score was 1.99.
